This note sets out measurements from patent publication US20230145766A1 (Innovent, published 2023).

The target of test [1] is T1, IL-2Rα receptor with an avi tag and an His6 tag at the C-terminus (human, UniProt P01589 22-217, biotin on the avi tag (enzymatic labelling with BirA)).
T1 construct: Biotin-labelled and loaded on the SA sensor in the ForteBio assays; also called CD25; IL-2Rα-His
T1 sequence: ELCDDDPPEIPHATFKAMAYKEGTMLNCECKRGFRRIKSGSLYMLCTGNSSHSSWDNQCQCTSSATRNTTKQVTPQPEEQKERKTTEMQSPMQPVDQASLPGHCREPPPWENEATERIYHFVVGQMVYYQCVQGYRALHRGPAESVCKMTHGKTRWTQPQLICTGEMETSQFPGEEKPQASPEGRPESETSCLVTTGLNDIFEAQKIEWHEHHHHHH
The experiment in a line: BLI (ForteBio); biotinylated receptor on SA sensor, 100 nM IL-2-Fc in solution, 1:1 model. Here is the method: (§1) The ForteBio affinity assay was conducted according to the method (Estep, P et al., High throughput solution Based measurement of antibody-antigen affinity and epitope binding. mAbs, 2013.5(2): p. 270-8) known in the art. […] The kinetic analysis was performed using a 1:1 binding model.

In test [2] the target is T1, IL-2Rα receptor with an avi tag and an …. The experiment in a line: BLI (ForteBio); biotinylated receptor on SA sensor, 100 nM IL-2 mutant molecule in solution, 1:1 model. The method, then: (§2) The equilibrium dissociation constants (KD) for binding of the IL-2 mutants described above in the present invention to their receptors were measured by biological optical interferometry (ForteBio).
as §1
(§3) The expression yields and purity of the IL-2 mutants were improved relative to the wild-type (Y045), and meanwhile, the introduction of the IL-2Rβγ binding interface amino acid mutations led to different levels of reductions in the affinity for IL-2Rβ and IL-2Rβγ.

For test [3] the target is unchanged. The experiment in a line: BLI (ForteBio); biotinylated receptor on SA sensor, 100 nM IL-2-Fc in solution. The method, then:
as §1

The target of test [4] is T2, IL-2Rβ receptor with an avi tag and an His6 tag at the C-terminus (human, UniProt P14784 27-240, biotin on the avi tag (enzymatic labelling with BirA)).
T2 construct: Biotin-labelled and loaded on the SA sensor in the ForteBio assays; also called CD122; IL-2Rβ-His
T2 sequence: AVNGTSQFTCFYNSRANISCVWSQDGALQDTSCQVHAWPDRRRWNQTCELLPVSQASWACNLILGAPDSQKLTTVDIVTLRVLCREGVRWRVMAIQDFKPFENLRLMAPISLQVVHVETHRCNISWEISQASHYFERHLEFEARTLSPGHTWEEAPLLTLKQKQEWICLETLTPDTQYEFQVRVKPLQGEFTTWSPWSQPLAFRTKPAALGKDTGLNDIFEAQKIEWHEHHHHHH
The experiment in a line: BLI (ForteBio); biotinylated receptor on SA sensor, 100 nM IL-2-Fc in solution, 1:1 model. Here is the method:
as §1

Test [5] has as its target T1, IL-2Rα receptor with an avi tag and an …. The experiment in a line: BLI (ForteBio); biotinylated receptor on SA sensor, 100 nM IL-2-Fc in solution. This is another data set of the same source.
In test [6] the target is T2, IL-2Rβ receptor with an avi tag and an …. The experiment in a line: BLI (ForteBio); biotinylated receptor on SA sensor, 100 nM IL-2 mutant molecule in solution, 1:1 model. The method, then: as §2, §1, §3
The target in test [7] is T3, IL-2 receptor βγ complex (IL-2Rβ-Fc.Knob / IL-2Rγ-Fc.Hole heterodimer) (human, complex was biotin-labelled enzymatically (BirA); site not stated).
T3 construct: Knobs-in-holes Fc heterodimer co-expressed in Expi293 cells; also called IL-2Rβγ; IL-2 receptor βγ protein
The description is as above. Here is the method:
as §2, §1, §3

Test [8] concerns the target T2, IL-2Rβ receptor with an avi tag and an …. The experiment in a line: BLI (ForteBio); biotinylated receptor on SA sensor, 100 nM IL-2-Fc in solution.

Where two headings read alike, the source gives them in different places.

B1: Y045 (IL-2^WT-2*(G4S)-FcLALA) (Fc fusion)
chain: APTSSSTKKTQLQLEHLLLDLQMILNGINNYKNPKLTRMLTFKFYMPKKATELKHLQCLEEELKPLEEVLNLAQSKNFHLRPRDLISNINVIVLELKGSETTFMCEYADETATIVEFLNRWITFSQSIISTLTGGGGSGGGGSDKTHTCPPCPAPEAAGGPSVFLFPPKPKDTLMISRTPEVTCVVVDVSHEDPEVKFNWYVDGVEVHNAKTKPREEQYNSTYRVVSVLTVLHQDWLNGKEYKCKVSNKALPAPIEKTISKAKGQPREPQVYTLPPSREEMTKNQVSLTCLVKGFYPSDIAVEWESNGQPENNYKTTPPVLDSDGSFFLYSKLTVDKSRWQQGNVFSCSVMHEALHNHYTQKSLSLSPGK
notes: Format 1 homodimer; also called IL-2^WT-FC; wild-type (Y045)
For B1, the figures for the Kd in test [1] and in test [2] were 10 nM and 1.05 nM, respectively.

B2: Y040 (IL-2^.3X-2*(G4S)-FcLALA) (Fc fusion)
chain: APTSSSTKKTQLQLEHLLLDLQMILNGINNYKNPKLTDMLTFEFYMPKKATELKHLQCLERELKPLEEVLNLAQSKNFHLRPRDLISNINVIVLELKGSETTFMCEYADETATIVEFLNRWITFSQSIISTLTGGGGSGGGGS[omitted - human IgG1 Fc with changes]
notes: also called IL-2^3X-FC
As to B2, in test [3], the binding result was “no binding (tested: 100 nM)”.

B3: Y30E1 IL-2^mutant-FC fusion protein (Fc fusion)
chain: APTSSSTKKTQLQLEHLLLDLQMILNGINNYKNPELEEMLTAKFYMPKKATELKHLQCLEEELKPLEEVLNLAQSKNFHLRPRDLISNINVIVLELKGSETTFMCEYADETATIVEFLNRWITFSQSIISTLTGGGGSGGGGS[omitted - human IgG1 Fc with changes]
notes: Format 1 homodimer; also called Mutant Y30E1
For the molecule B3, in test [3], the binding result is reported as “no binding (tested: 100 nM)”. The molecule also yielded a Kd in test [4] of 5.9 nM.

B4: Y144 (IL-2^.Y30E1.15BCL.T3A-2*(G4S)-FcLALA) (Fc fusion)
chain: APASSSTKKTQLQLEHLLLDLQMILNGINNYKNPELEEMLTAKFYMPKKATELKHLQCLEEELKPLEEVLNLAGDASIHDLISNINVIVLELKGSETTFMCEYADETATIVEFLNRWITFSQSIISTLTGGGGSGGGGS[omitted - human IgG1 Fc with changes]
notes: Format 1 homodimer
As to B4, the binding result in test [5] is “no binding (tested: 100 nM)”. Besides, the figures for the Kd in test [6] and in test [7] were 2.95 nM and 0.0867 nM, respectively.

B5: 2481 (Fc fusion)
chain: APASSSTKKTQLQLEHLLLDLQMILNGINNYKNPKLTRMLTFKFYMPKKATELKHLQCLEEELKPLEEVLNLAGDASIHDLISRINVIVLELKGSETTFMCEYADETATIVEFLNRWITFSQSIISTLTGGGGSGGGGS[omitted - human IgG1 Fc with changes]
notes: Format 1 homodimer
As to B5, the binding result in test [8] is on record as “no binding (tested: 100 nM)”.

B6: 2454 (Fc fusion)
chain: APASSSTKKTQLQLEHLLLNLQMILNGINNYKNPKLTRMLTFKFYMPKKATELKHLQCLEEELKPLEEVLNLAGDASIHDLISNINVIVLELKGSETTFMCEYADETATIVEFLNRWITFSQSIISTLTGGGGSGGGGS[omitted - human IgG1 Fc with changes]
notes: Format 1 homodimer
As for B6, the binding result in test [8] was “no binding (tested: 100 nM)”.

B7: 2133 (Fc fusion)
chain: APASSSTKKTQLQLEHLLLDLQMILNGINNYKNPELEEMLTAKFYMPKKATELKHLQCLEEELKPLEEVLNLAGDASIHDLISQINVIVLELKGSETTFMCEYADETATIVEFLNRWITFSQSIISTLTGGGGSGGGGS[omitted - human IgG1 Fc with changes]
notes: Format 1 homodimer
Take B7: in test [8], the binding result is reported as “no binding (tested: 100 nM)”. Further, the Kd in test [7] turned out to be 7.68 nM.

B8: 2107 (Fc fusion)
chain: APASSSTKKTQLQLEHLLLNLQMILNGINNYKNPELEEMLTAKFYMPKKATELKHLQCLEEELKPLEEVLNLAGDASIHDLISNINVIVLELKGSETTFMCEYADETATIVEFLNRWITFSQSIISTLTGGGGSGGGGS[omitted - human IgG1 Fc with changes]
notes: Format 1 homodimer
For the molecule B8, in test [8], the binding result is “no binding (tested: 100 nM)”. In test [7], the Kd was 2.63 nM.

B9: 2170 (Fc fusion)
chain: APASSSTKKTQLQLETLLLDLQMILNGINNYKNPELEEMLTAKFYMPKKATELKHLQCLEEELKPLEEVLNLAGDASIHQLISNINVIVLELKGSETTFMCEYADETATIVEFLNRWITFSQSIISTLTGGGGSGGGGS[omitted - human IgG1 Fc with changes]
notes: Format 1 homodimer
With B9, the values for the Kd in test [6] and in test [7] were 49.6 nM and 0.861 nM, respectively.

B10: 2171 (Fc fusion)
chain: APASSSTKKTQLQLETLLLDLQMILNGINNYKNPELEEMLTAKFYMPKKATELKHLQCLEEELKPLEEVLNLAGDASIHDLISNINIIVLELKGSETTFMCEYADETATIVEFLNRWITFSQSIISTLTGGGGSGGGGS[omitted - human IgG1 Fc with changes]
notes: Format 1 homodimer
As to B10, the Kd turned out to be 15.3 nM in test [6] and 0.158 nM in test [7].

B11: 2132 (Fc fusion)
chain: APASSSTKKTQLQLEHLLLDLQMILNGINNYKNPELEEMLTAKFYMPKKATELKHLQCLEEELKPLEEVLNLAGDASIHDLISTINVIVLELKGSETTFMCEYADETATIVEFLNRWITFSQSIISTLTGGGGSGGGGS[omitted - human IgG1 Fc with changes]
notes: Format 1 homodimer
Take B11: in test [8], the binding result is on record as “no binding (tested: 100 nM)”. This molecule also showed a Kd in test [7] of 1.99 nM.

B12: 2478 (Fc fusion)
chain: APASSSTKKTQLQLEHLLLDLQMILNGINNYKNPKLTRMLTFKFYMPKKATELKHLQCLEEELKPLEEVLNLAGDASIHDLISDINVIVLELKGSETTFMCEYADETATIVEFLNRWITFSQSIISTLTGGGGSGGGGS[omitted - human IgG1 Fc with changes]
notes: Format 1 homodimer
On to B12, for which the binding result in test [8] is reported as “no binding (tested: 100 nM)”.
